Source: article PMC4336329 (PLoS ONE, 2015)
The campaign covered roughly 310,000 compounds. About 2,200 (0.71%) showed an effect of 50% or more. Effects have a minus sign here. The list shows a part of the results.

These compounds were tested against human ether-à-go-go-related gene (hERG) potassium channel (human, UniProt Q12809) (assay: primary screen, population patch clamp on CHO cells stably expressing hERG).
human ether-à-go-go-related gene (hERG) potassium channel, sequence (Q12809 whole entry, looked up): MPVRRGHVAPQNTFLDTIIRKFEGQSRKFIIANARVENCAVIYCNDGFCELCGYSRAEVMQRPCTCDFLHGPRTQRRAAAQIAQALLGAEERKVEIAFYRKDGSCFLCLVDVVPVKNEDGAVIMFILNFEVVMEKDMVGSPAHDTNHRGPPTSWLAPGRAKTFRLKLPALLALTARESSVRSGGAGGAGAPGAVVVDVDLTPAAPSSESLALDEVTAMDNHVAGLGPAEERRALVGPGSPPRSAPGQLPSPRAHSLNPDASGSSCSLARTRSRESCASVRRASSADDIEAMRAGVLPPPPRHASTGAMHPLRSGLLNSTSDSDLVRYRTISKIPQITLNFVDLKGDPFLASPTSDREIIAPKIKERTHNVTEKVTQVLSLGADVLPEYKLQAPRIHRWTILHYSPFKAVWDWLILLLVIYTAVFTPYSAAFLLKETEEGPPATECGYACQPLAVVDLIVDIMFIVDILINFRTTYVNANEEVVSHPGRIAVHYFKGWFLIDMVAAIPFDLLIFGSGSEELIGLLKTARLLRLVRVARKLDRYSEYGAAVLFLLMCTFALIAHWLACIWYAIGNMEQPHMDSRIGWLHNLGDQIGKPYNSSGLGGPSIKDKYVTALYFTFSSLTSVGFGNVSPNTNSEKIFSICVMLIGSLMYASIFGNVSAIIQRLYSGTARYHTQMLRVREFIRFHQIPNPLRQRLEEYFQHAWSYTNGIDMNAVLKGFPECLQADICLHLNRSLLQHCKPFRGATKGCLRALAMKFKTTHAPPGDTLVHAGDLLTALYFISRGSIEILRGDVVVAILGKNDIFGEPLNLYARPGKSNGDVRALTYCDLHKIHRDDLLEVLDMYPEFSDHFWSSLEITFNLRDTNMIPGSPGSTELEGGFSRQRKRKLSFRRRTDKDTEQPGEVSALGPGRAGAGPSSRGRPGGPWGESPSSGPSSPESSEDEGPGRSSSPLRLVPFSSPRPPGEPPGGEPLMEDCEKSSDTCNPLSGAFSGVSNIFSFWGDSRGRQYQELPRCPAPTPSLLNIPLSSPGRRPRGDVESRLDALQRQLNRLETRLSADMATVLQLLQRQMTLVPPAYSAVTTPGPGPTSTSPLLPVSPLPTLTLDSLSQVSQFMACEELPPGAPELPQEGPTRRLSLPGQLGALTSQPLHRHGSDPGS

Q: `COc1ccc(S(=O)(=O)N(Cc2ccccc2)Cc2nc3ccccc3c(=O)[nH]2)cc1` was tested. Which “hERG current change (%, negative = inhibition) at 1uM” value did it give?
A: 8.77%

Q: With `CCOC(=O)CSc1nnc(-c2ccc(Cl)cc2Cl)o1` as the compound, how does the “hERG current change (%, negative = inhibition) at 1uM” value read?
A: -2.76%

Q: For `C=CC[C@H]1Cc2c(cccc2[N+](=O)[O-])[C@H](CC=C)N1`, which “hERG current change (%, negative = inhibition) at 1uM” value is on record?
A: 6.88%

Q: `O=C(O)c1ccc(S(=O)(=O)c2ccc([N+](=O)[O-])cc2[N+](=O)[O-])cc1` was tested. Which “hERG current change (%, negative = inhibition) at 1uM” value did it give?
A: 6.1%

Q: Which “hERG current change (%, negative = inhibition) at 1uM” value does the source give for `COc1cccc(CN(C)CC(=O)NNC(=O)c2ccc(Cl)cc2)c1` here?
A: 0.278%

Q: Which “hERG current change (%, negative = inhibition) at 1uM” value does the source give for `CCOC(=O)N1CCC(N2Cc3cccc(C(=O)Nc4ccc(OCC)cc4)c3C2=O)CC1` here?
A: 13.3%

Q: Which “hERG current change (%, negative = inhibition) at 1uM” value does the source give for `O=C(CN1C(=O)NC2(CCCC2)C1=O)Nc1ccc(S(=O)(=O)N2CCOCC2)cc1` here?
A: 10.2%

Q: How did the “hERG current change (%, negative = inhibition) at 1uM” value turn out when `CCOc1ccc2oc(-c3ccccc3)c(C(=O)N3CCN(C)CC3)c2c1` was run?
A: 9.85%

Q: For `O=C(CN1CCC(n2nnc3ccccc32)CC1)Nc1ccc2c(c1)CCC2`, which “hERG current change (%, negative = inhibition) at 1uM” value is on record?
A: -1.51%

Q: `Cc1cc(C)c(S(=O)(=O)Nc2ccc3c(c2)CCC3)c(C)c1` was tested. Which “hERG current change (%, negative = inhibition) at 1uM” value did it give?
A: 4.55%

Q: `CC(=O)c1c(N2CCC(C(N)=O)CC2)nc(=S)n(-c2ccccc2)c1C` was tested. Which “hERG current change (%, negative = inhibition) at 1uM” value did it give?
A: -2.8%

Q: `Cc1nn(-c2ccccn2)c2nc(-c3cccs3)cc(C(=O)NCc3ccco3)c12` was tested. Which “hERG current change (%, negative = inhibition) at 1uM” value did it give?
A: -13.2%

Q: For `O=C(CN1C(=O)S/C(=C\c2ccccc2Cl)C1=O)NCCCn1ccnc1`, which “hERG current change (%, negative = inhibition) at 1uM” value is on record?
A: 0.231%

Q: With `CC(=O)c1ccc(-c2ccc(Cn3c(C)nc4cc(N)c(C)nc43)cc2)cc1` as the compound, how does the “hERG current change (%, negative = inhibition) at 1uM” value read?
A: 13%

Q: With `N#C/C(=C/c1cccs1)c1ccccn1` as the compound, how does the “hERG current change (%, negative = inhibition) at 1uM” value read?
A: 18.6%

Q: With `O=C(COC(=O)C12CC3CC(CC(Cl)(C3)C1)C2)Nc1ccc2[nH]c(=O)[nH]c2c1` as the compound, how does the “hERG current change (%, negative = inhibition) at 1uM” value read?
A: 11.1%

Q: `OCCCn1c(C2CCCN2c2nc(-c3ccc(F)cc3)cs2)nc2cc(Cl)c(Cl)cc21` (centres unmarked) was tested. Which “hERG current change (%, negative = inhibition) at 1uM” value did it give?
A: 11%

Q: With `O=C(CCC(=O)c1cccs1)OCc1ccc([N+](=O)[O-])cc1` as the compound, how does the “hERG current change (%, negative = inhibition) at 1uM” value read?
A: 2.72%

Q: With `C#CCOCCOCCOCCNc1nc(N2CCN(C(=O)[C@H](CCC(=O)O)n3cc(C(N)CC(C)C)nn3)CC2)nc(N2CCN(C(=O)[C@H](Cc3ccc(O)cc3)n3cc(C(N)CC(C)C)nn3)CC2)n1.Cl` (some centres unmarked) as the compound, how does the “hERG current change (%, negative = inhibition) at 1uM” value read?
A: -6.98%

Q: How did the “hERG current change (%, negative = inhibition) at 1uM” value turn out when `CCn1cc(C(=O)NCCCN2CC(C)CC(C)C2)c(=O)c2cc(S(=O)(=O)N(C)C3CCCCC3)ccc21` (centres unmarked) was run?
A: -91.4%

Q: Which “hERG current change (%, negative = inhibition) at 1uM” value does the source give for `S=C(NCCc1ccccc1)Nc1ccccc1` here?
A: 12.7%

Q: For `Cc1cc(-c2ccco2)n(CC(=O)NCc2ccccc2)n1`, which “hERG current change (%, negative = inhibition) at 1uM” value is on record?
A: 6.3%

Q: With `CCCc1nc2oc3c(=O)[nH]cnc3c2c2c1CCCC2` as the compound, how does the “hERG current change (%, negative = inhibition) at 1uM” value read?
A: -9.7%

Q: With `CCOC(=O)C(Cc1ccccc1)NC(=O)CCc1nnc2ccc(N3CCCC3)nn12` (centres unmarked) as the compound, how does the “hERG current change (%, negative = inhibition) at 1uM” value read?
A: 10.9%

Q: For `Cc1ccc(C(C)C)c(OCC(=O)NN=C(CCl)CCl)c1`, which “hERG current change (%, negative = inhibition) at 1uM” value is on record?
A: 3.28%

Q: For `CN(/N=C/c1ccc(Cl)cc1Cl)c1ncc(Cl)cc1C(F)(F)F`, which “hERG current change (%, negative = inhibition) at 1uM” value is on record?
A: 11.2%

Q: Which “hERG current change (%, negative = inhibition) at 1uM” value does the source give for `COC(=O)CN1C(=O)COc2ccc(Cl)cc21` here?
A: 12.7%

Q: `CCN1CCN(c2ncc3c(n2)CC(c2cc(OC)c(OC)c(OC)c2)CC3=O)CC1` (centres unmarked) was tested. Which “hERG current change (%, negative = inhibition) at 1uM” value did it give?
A: 11.7%

Q: For `CN(C)c1ccc(/C=N/NC(=O)c2ccc(Cl)cc2)cc1`, which “hERG current change (%, negative = inhibition) at 1uM” value is on record?
A: 4.15%

Q: For `CCc1ccc(N2C(=O)CC(c3ccc(F)cc3)C3=C2COC3=O)cc1` (centres unmarked), which “hERG current change (%, negative = inhibition) at 1uM” value is on record?
A: -13.5%

Q: How did the “hERG current change (%, negative = inhibition) at 1uM” value turn out when `CSc1ccccc1NC(=O)CN(C)S(=O)(=O)c1ccc(F)cc1` was run?
A: -10.3%

Q: For `COc1cc(OC)cc(C(=O)Nc2ccc(Nc3ccccc3)cc2)c1`, which “hERG current change (%, negative = inhibition) at 1uM” value is on record?
A: 6.05%

Q: Which “hERG current change (%, negative = inhibition) at 1uM” value does the source give for `CC(C)(C)NC(=O)C(OC(=O)c1ccco1)c1ccc(Cl)cc1` (centres unmarked) here?
A: 12.2%

Q: For `Cc1ccc(C(=O)NC2CCS(=O)(=O)C2)cc1S(=O)(=O)N1CCCCCC1` (centres unmarked), which “hERG current change (%, negative = inhibition) at 1uM” value is on record?
A: -0.538%

Q: Which “hERG current change (%, negative = inhibition) at 1uM” value does the source give for `Oc1[nH]c2ccccc2c1N=Nc1nc2ccccc2s1` here?
A: -3.26%

Q: `Cc1ccc(NC(=O)CCS(=O)(=O)c2cc3[nH]c(=O)c(=O)[nH]c3cc2C)cc1` was tested. Which “hERG current change (%, negative = inhibition) at 1uM” value did it give?
A: 16.9%

Q: How did the “hERG current change (%, negative = inhibition) at 1uM” value turn out when `COC(=O)c1ccc2c(=O)n(CCCCCC(=O)N3CCN(c4ccccc4)CC3)c(=O)[nH]c2c1` was run?
A: 10.4%

Q: How did the “hERG current change (%, negative = inhibition) at 1uM” value turn out when `COc1ccc(NC(=O)COc2nsnc2N2CCCCC2)cc1` was run?
A: 3.6%

Q: Which “hERG current change (%, negative = inhibition) at 1uM” value does the source give for `Cc1ccc(C(=O)Cn2nc(C)c([N+](=O)[O-])c2C)c(C)c1` here?
A: 5.7%

Q: With `CCOc1ccc(NC(=O)CSc2nnc(-c3ccccn3)n2N)cc1` as the compound, how does the “hERG current change (%, negative = inhibition) at 1uM” value read?
A: 8.79%

Q: For `O=C([O-])/C=C\C(=O)[O-].c1ccc2nc(N3CCNCC3)ccc2c1`, which “hERG current change (%, negative = inhibition) at 1uM” value is on record?
A: 16.2%

Q: With `CC1(C)CC(=NOC(=O)c2ccccc2)CC(C)(C)N1` as the compound, how does the “hERG current change (%, negative = inhibition) at 1uM” value read?
A: -3.93%

Q: For `Cl.Cn1nnnc1SCCNCc1ccccc1OCc1ccc(F)cc1`, which “hERG current change (%, negative = inhibition) at 1uM” value is on record?
A: -5.7%

Q: `Cc1ccccc1N1CCN(c2ccc(NC(=O)C3CCCCC3C(=O)O)cc2)CC1` (centres unmarked) was tested. Which “hERG current change (%, negative = inhibition) at 1uM” value did it give?
A: 1.66%

Q: Which “hERG current change (%, negative = inhibition) at 1uM” value does the source give for `Cc1cc(C)n2nc(CNS(=O)(=O)c3ccc(C)c(C)c3)nc2n1` here?
A: 13.9%

Q: With `CCn1c(N2CCN(S(=O)(=O)c3ccc(Cl)cc3)CC2)nc2ccccc21` as the compound, how does the “hERG current change (%, negative = inhibition) at 1uM” value read?
A: -12.7%

Q: How did the “hERG current change (%, negative = inhibition) at 1uM” value turn out when `CCCC1=Nc2cc(C(=O)NCCN3CCOCC3)ccc2Sc2ccccc21` was run?
A: 9.66%

Q: `Cc1nn(-c2ccc(C(F)(F)F)cn2)c(C)c1Oc1ccccc1O` was tested. Which “hERG current change (%, negative = inhibition) at 1uM” value did it give?
A: 19.9%

Q: How did the “hERG current change (%, negative = inhibition) at 1uM” value turn out when `CSCC[C@H](NC(=O)[C@@H]1CSC2c3ccccc3C(=O)N21)C(=O)NCc1ccco1` (some centres unmarked) was run?
A: 9.46%

Q: For `C=CCn1c(O)c(/C=N/NC(=O)CCCC)c(=O)[nH]c1=S`, which “hERG current change (%, negative = inhibition) at 1uM” value is on record?
A: 8.61%

Q: `COc1ccc(NS(=O)(=O)c2cccc(NC(=O)c3ccccn3)c2)cc1` was tested. Which “hERG current change (%, negative = inhibition) at 1uM” value did it give?
A: 8.33%

Q: With `O=C(CSc1ncn[nH]1)Nc1ccc(Br)cc1F` as the compound, how does the “hERG current change (%, negative = inhibition) at 1uM” value read?
A: 10%

Q: How did the “hERG current change (%, negative = inhibition) at 1uM” value turn out when `Cc1nn(-c2ccccn2)c2c1C(c1ccccc1Cl)C1=C(N2)c2ccccc2C1=O` (centres unmarked) was run?
A: 13.9%
